From PubChem BioAssay (NCI)
“And” between values parts separate entries of the source, which are not always exact repeats. Identical values can stand only once.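 How tested: cells in 96-well plates exposed to compound for 48 hours at five concentrations. The concentration for 50% growth inhibition is given as GI50. TGI: total growth inhibition.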

tested on: NCI-H322M lung; assay: NCI-60 cell line screen, 48 h

Row | SMILES | TGI | GI50
1 | O=C1CSC(c2cccc(Oc3ccccc3)c2)N1c1cc(Cl)ccc1Cl (stereo not drawn) | > 100 µM | –
2 | COC(=O)C1CCC(=S)N1C(C)=O (stereo not drawn) | > 100 µM | –
3 | O=C1C(=O)c2c(ccc3ccccc23)-c2ccccc21 | 15.2 µM | 3.17 µM
4 | CC(=O)Oc1c(OC(C)C)cc(=O)n2ccsc12 | > 100 µM | –
5 | O=C(O)C12C3C4C1C1C2C3C41I (stereo not drawn) | > 100 µM | –
6 | Nc1ccc2ncc(Nc3ccc(Cl)c(Cl)c3)nc2c1 | > 100 µM | –
7 | C[C@@H](c1ccccc1)N(CC#N)[C@H]1CCC[C@]1(O)/C=C/c1ccc2c(c1)OCO2 | > 25 µM | –
8 | Cc1cc2c(SCc3ccccc3Cl)nc(N)nc2nc1C | > 100 µM | –
9 | O=C(Nc1nc2ccc([N+](=O)[O-])cc2s1)c1cc([N+](=O)[O-])ccc1Cl | 10.2 µM | –
10 | OCCn1c(-c2ccncc2)c(-c2ccc(F)cc2)c2ncccc21 | > 25 µM | > 25 µM
11 | CCCSC1=N/C(=C\c2ccco2)C(=O)N1 | > 100 µM | –
12 | COc1ccc2c3c(c4cc(OC)c(OC)cc4c2c1)C[C@H]1CCCCN1C3 | 1.37e-06 µM | –
13 | CCCCSC1=N/C(=C\c2ccccc2O)C(Cl)=N1 | > 100 µM | –
14 | CC1=C(C(=O)OC(C)(C)C)C(c2ccc([N+](=O)[O-])cc2)C(C(=O)OC(C)(C)C)=C(C)N1 | 41.3 µM | –
15 | CCOC(=O)c1c(/C=N\Nc2ccccc2)nc2ccccc2c1-c1ccccc1 | > 100 µM | –
16 | Oc1ccc(CCNc2nc3ccccc3c3[nH]c4ccccc4c23)cc1 | 3.29 µM | 1.56 µM
17 | CN(C)C(=O)c1cc2cnc(Nc3ccc(N4CCNCC4)cn3)nc2n1C1CCCC1 | > 100 µM | 17.8 µM
18 | CC(=O)Nc1ccc(C(=O)COc2cccc(/C=C3\CCc4ccccc4C3=O)c2)cc1 | > 100 µM | 76.1 µM
19 | CC(C)C12CCC3(CCC4C(C)(C(=O)O)CCCC4(C)C3C1)C(CN)C2 (stereo not drawn) | > 100 µM | –
20 | COC(=O)C1=C(C)N(NC(=O)Nc2ccccc2)C2(N)N(NC(=O)Nc3ccccc3)C(C)=C(C(=O)OC)C12C(=O)OC (stereo not drawn) | > 100 µM | –
21 | Cc1cc(NS(=O)(=O)c2ccc(NC(NC(=O)OC(C)C)(C(F)(F)F)C(F)(F)F)cc2)nc(C)n1 | > 100 µM | –
22 | CC1SCCc2nc3ccccc3n21 (stereo not drawn) | > 100 µM | –
23 | CC1=C2[C@@H](c3ccccc3)C3C=CC2(C=C3C(F)(F)F)N(C(=O)NC2CCCCC2)C1=O (stereo partly drawn) | > 100 µM | –
24 | O=C(/C=C/N1CCN(c2cccc(Cl)c2)CC1)c1ccc(Cl)cc1 | > 100 µM | 30.5 µM
25 | CCN(CCCl)c1ccc(NC(=O)c2cc(C(=O)NCCN(C)C)cc(C(=O)Nc3ccc(N(CC)CCCl)cc3)c2)cc1 | 32.4 µM | –
26 | O=C1c2sccc2C(=O)c2c(CO)csc21 | 20.5 µM | –

Row | SMILES | TGI | GI50
27 | COc1ccc(-c2ccc(/C=N/n3c(COc4ccc(Cl)c(C)c4)nn(CN4CCOCC4)c3=S)o2)c([N+](=O)[O-])c1 | 97.7 µM | 24.6 µM
28 | CCC(=C(c1ccc(OCCN(CC)CC)cc1)c1ccc(OCCN(CC)CC)cc1)c1ccc(Cl)cc1 | 1.08 µM | 0.562 µM
29 | CC1=CC(=O)N2[C@H](OC[C@@H]2C(C)C)O1 | > 100 µM | –
30 | Cc1nnc(N)s/c1=N/O | > 100 µM | –
31 | Cc1[nH]n(C(=O)c2ccc(Cl)cc2)c(=O)c1/C=C1\C(O)=CC(=O)c2ccccc21 | > 100 µM | –
32 | ClCc1ccc(Cn2cnc3nc(Cl)nc(Cl)c32)cc1 | 2.56 µM | 1.13 µM
33 | COc1cc(COC(=O)NC(Cc2cccs2)C(=O)O)c([N+](=O)[O-])cc1OC (stereo not drawn) | > 100 µM | –
34 | O=C1NC2(CCCCC2)C2=C1CCCCC2 | > 100 µM | –
35 | CCCCC(C)(C/C=C/[C@@H]1[C@@H](C(O)CCCCCC(=O)OC)C(=O)C[C@H]1O[Si](C)(C)C(C)(C)C)O[Si](C)(C)C (stereo partly drawn) | > 100 µM | –
36 | N#Cc1c(N)n(-c2nc3ccccc3s2)c(=O)c2cc([N+](=O)[O-])ccc12 | > 82.6 µM | –
37 | Nc1c(/C=C/c2cc3cc(C4=NCCN4)ccc3o2)[nH]c2cc(C3=NCCN3)ccc12 | 59.6 µM | –
38 | Oc1ccc(/C=N/Nc2nnc(N/N=C/c3ccc(O)cc3O)c3ccccc23)c(O)c1 | 4.6 µM | 0.424 µM
39 | COc1ccc(Cl)cc1Nc1nc(C(F)(F)F)ccc1C(=O)N/N=C/c1ccc(Cl)cc1 | 32.3 µM | 0.31 µM
40 | c1csc(-c2[nH]nc3c2CCc2ccccc2-3)c1 | > 87.9 µM | 13.7 µM
41 | C(/Cc1ccc2c(c1)OCO2)=N\NC1=NCCCCN1 | > 100 µM | –
42 | O=C(c1ccccc1)c1ccc(N2C(=O)C3C4c5ccccc5C(/C=C/C(=O)c5ccccn5)(c5ccccc54)C3C2=O)cc1 (stereo not drawn) | > 100 µM | 5.75 µM
43 | COc1cc2nccc(Oc3ccc(NC(=O)C4(C(=O)Nc5ccc(F)cc5)CC4)cc3)c2cc1OC | > 10 µM and 55.6 µM | > 10 µM and 4.85 µM
44 | O=C(NCc1ccc(Cl)c(Cl)c1)c1nc2ccccc2nc1NCc1ccc(Cl)c(Cl)c1 | > 100 µM | –
45 | Nc1nc(N)c2ncn(Cc3ccccc3)c2n1 | > 100 µM | –
46 | Cc1cccc(Cc2cnc(NC(=O)CCCOc3ccc(Cl)cc3)s2)c1 | > 100 µM | 7.5 µM
47 | Cc1cc(N(CCCl)CCCl)ccc1/C=N\NC(=O)c1cccnc1 | > 100 µM | > 100 µM
48 | CC(=O)OCC1OC(OC(C)=O)C(NC#N)C(OC(C)=O)C1OC(C)=O (stereo not drawn) | > 100 µM | –
49 | CS(=O)(=O)Nc1ccc(Nc2c3ccccc3nc3cc(Cl)ccc23)cc1 | 18 µM | 4.58 µM
50 | Cc1ccc(C(=O)C2CC3(CCC2(O)c2ccc(C)cc2)CC(=O)Nc2ccccc2C3=O)cc1 (stereo not drawn) | > 100 µM | –
51 | COc1cc(/C=C/C(=O)c2c(-c3ccc(Cl)cc3)nc3sc(C)nn23)cc(OC)c1OC | > 100 µM | > 100 µM
52 | COc1ccc(C[C@H](N)C(=O)N[C@@H]2[C@@H](CO)OC(n3cnc4c(N(C)C)ncnc43)[C@@H]2O)cc1 (stereo partly drawn) | 1.49 µM | –

Row | SMILES | TGI | GI50
53 | CC(C)S1=C2C(=O)CC(C)(C)CC2=Nc2ccccc21 (stereo not drawn) | > 100 µM | –
54 | O=C(c1ccccc1)n1c2ccc(Br)cc2c2nc3ccccc3nc21 | > 100 µM | –
55 | COc1ccc(OC)c2c(Nc3ccc(S(=O)(=O)O)c4cc(S(=O)(=O)O)cc(S(=O)(=O)O)c34)cc(C)nc12 | > 100 µM | –
56 | NC(=O)NC(=O)C1CCC(=O)N1S(=O)(=O)c1ccc(Cl)cc1 (stereo not drawn) | > 100 µM | –
57 | O=C1Cc2c(-c3ccccc3)cc(-c3ccc(Cl)cc3)nc2-c2ccccc2N1 | 24.6 µM | –
58 | Cc1cc(C2(c3cc(C)c(O)c4ncccc34)OC(=O)c3ccccc32)c2cccnc2c1O | > 100 µM | 4.27 µM
59 | CN1C/C(=C\c2ccco2)c2nc(N)nc(-c3ccco3)c2C1 | > 100 µM | –
60 | CCN(CC)CCCNc1nnc(C)c2[nH]c3ccccc3c12 | 52.2 µM | –
61 | O=C(/C=C/c1ccc(OCC(=O)N2CCN(c3ccccc3)CC2)cc1)c1ccccc1 | > 89.6 µM | –
62 | COc1ccc(/[N+]([O-])=C/c2ccccc2OC(=S)S)cc1 | > 100 µM | –
63 | COC(=O)/C(=C/c1ccc(OC)cc1)c1cc(OC)c(OC)c(OC)c1 | > 100 µM | –
64 | CN(C)c1ccc(/C=C2\CCCCCC2=O)cc1 | > 100 µM | –
65 | COc1cc([C@H]2c3cc(O)c(OC)cc3C[C@]3(O)[C@@H]2CO[C@@H]3O)ccc1O | > 100 µM | –
66 | O=[N+]([O-])C1(CO)COC(CCc2ccccc2)OC1 (stereo not drawn) | > 100 µM | –
67 | CC(C)=NO.CC(C)=NO.CC(C)=NO.CC(C)=NO.[Ti] | > 100 µM | > 100 µM
68 | CC1CC2C(=O)N(c3ccccc3)C(=O)C2c2[nH]c3ccccc3c21 (stereo not drawn) | > 100 µM | –
69 | CN1Cc2c(ccc3c2OCO3)[C@@H]2[C@H](O)Cc3cc4c(cc3[C@@H]21)OCO4 | > 100 µM | –
70 | CC(C)(CCc1nc2ccccc2[nH]1)C(=O)O | > 100 µM | –
71 | Nn1c(=S)[nH]nc(/C=C/c2c(O)ccc3ccccc23)c1=O | 42 µM | –
72 | Cc1c(Cl)cc(C(C)(C)C)c(O)c1Cc1c(C)c(Cl)cc(C(C)(C)C)c1O | 7.51 µM | –
73 | Cn1c(=O)c(-c2c(Cl)cccc2Cl)cc2cnc(Nc3ccc(N4CCOCC4)cc3)nc21 | 4.69 µM | 0.564 µM
74 | CN1OC(CO)CC12C1CC3CC(C1)CC2C3 (stereo not drawn) | > 100 µM | –
75 | COc1c(-c2nc3nc(N4CCN(C)CC4)ccc3[nH]2)cc(OC)c2c1nc(CCl)n2C | > 100 µM | –
76 | NC1CC(n2ccc(=O)[nH]c2=O)OC1C(O)CO (stereo not drawn) | > 100 µM | –
77 | COC(=O)N/N=C(\c1nc2ccc(Cl)cc2[nH]c1=O)C(O)c1ccc([N+](=O)[O-])cc1 (stereo not drawn) | > 100 µM | –
78 | Cc1cc2c(=O)cc(-c3ccncc3)oc2c(C(=O)O)c1C | > 100 µM | –

Row | SMILES | TGI | GI50
79 | Nc1nc(Nc2cc(F)c(Cl)c(F)c2)cc(=O)[nH]1 | > 100 µM | –
80 | O=C(Cn1c(-c2ccccc2)cc2ccccc21)N1CCOCC1 | > 100 µM | –
81 | CCOC(=O)c1c(SCCN(CC)CC)n(-c2ccccc2)c(=S)n(-c2ccccc2)c1=O | 32.4 µM | –
82 | Cc1nc(-c2cccnc2)sc1C(=O)/C=C/c1ccc(Cl)cc1Cl | > 100 µM | –
83 | CO/C(N)=C(\C#N)N=Cc1cccs1 | > 100 µM | –
84 | O=C(C[N+]1(c2ccccc2)CCOCC1)c1ccccc1 | > 100 µM | –
85 | CCc1n[nH]c(=O)n1-c1ccncc1 | > 100 µM | –
86 | O=C(Nc1ccccc1)Oc1ccccc1C1CCCCC1 | 88.9 µM | –
87 | O=[N+]([O-])c1cccc(C2=NOC3CCCC23)c1 (stereo not drawn) | > 100 µM | –
88 | COc1ccc(N=C(SSC(=Nc2ccc(OC)cc2)c2ccc([N+](=O)[O-])o2)c2ccc([N+](=O)[O-])o2)cc1 | 3.1 µM | –
89 | Cc1ccc(C)c(C(=O)CC2OC(O)C(Cl)C2Cl)c1 (stereo not drawn) | > 100 µM | –
90 | COc1cc2c(cc1OCCCN1CCN(CCCn3c4ccccc4c4ccccc43)CC1)N=C[C@@H]1CCCN1C2=O | 1.1 µM | 0.129 µM
91 | COC(=O)C1=C(C)C(=O)C2(CCCCCC2C(=O)OC)C1 (stereo not drawn) | > 100 µM | –
92 | C/C(=N\NC(=O)c1ccncc1)c1ccccc1O | > 100 µM | 2.06 µM
93 | O=C1OC(c2ccccc2)=N/C1=C\c1ccc(N(CCCl)CCCl)cc1 | > 100 µM | –
94 | Clc1cc2ncn(C3CCCO3)c2cc1Cl (stereo not drawn) | > 100 µM | –
95 | O=C1Cc2c([nH]c3c(Br)cccc23)-c2ccccc2N1 | > 100 µM | –
96 | COc1cccc(OC)c1/C=N\N1C(=O)c2ccccc2C1=O | > 100 µM | –
97 | N=c1sc(N2CCOCC2)nn1CC(=O)c1ccccc1 | > 100 µM | –
98 | COc1ccc(S(=O)(=O)NCCCNc2nccc(-c3c(-c4ccc(F)cc4)nc4sccn34)n2)cc1 | > 100 µM | 14.5 µM
99 | Cn1c(=O)c(C#N)c(O)c2cc3ccccc3nc21 | > 100 µM | –
100 | Cn1ncc2c(c1=O)Nc1ccccc1S2(=O)=O | > 100 µM | –
101 | CCOC(=O)/C(=C/c1ccc[nH]1)P(=O)(OCC)OCC | > 100 µM | –
102 | O=P1(C(O)c2ccccc2)N(Cc2ccccc2)[C@@H]2CCCC[C@H]2N1Cc1ccccc1 (stereo partly drawn) | > 100 µM | –
103 | CN1CCN(Cc2ccc(NC(=O)c3cncc(C#Cc4cnc5cccnn45)c3)cc2C(F)(F)F)CC1 | 4.74 µM | 1.57 µM
